Source: paper PMC4336329 (PLoS ONE, 2015)
The campaign covered roughly 310,000 compounds. About 14,000 (4.5%) showed an effect of 50% or more. Effects have a minus sign here. Some of the results follow.

The compounds below were run against human ether-à-go-go-related gene (hERG) potassium channel (human, UniProt Q12809) (assay: primary screen, population patch clamp on CHO cells stably expressing hERG).
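Note: peak tail current of the secondary pulse compared with the same well before compound.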

human ether-à-go-go-related gene (hERG) potassium channel, sequence (Q12809 whole entry, looked up): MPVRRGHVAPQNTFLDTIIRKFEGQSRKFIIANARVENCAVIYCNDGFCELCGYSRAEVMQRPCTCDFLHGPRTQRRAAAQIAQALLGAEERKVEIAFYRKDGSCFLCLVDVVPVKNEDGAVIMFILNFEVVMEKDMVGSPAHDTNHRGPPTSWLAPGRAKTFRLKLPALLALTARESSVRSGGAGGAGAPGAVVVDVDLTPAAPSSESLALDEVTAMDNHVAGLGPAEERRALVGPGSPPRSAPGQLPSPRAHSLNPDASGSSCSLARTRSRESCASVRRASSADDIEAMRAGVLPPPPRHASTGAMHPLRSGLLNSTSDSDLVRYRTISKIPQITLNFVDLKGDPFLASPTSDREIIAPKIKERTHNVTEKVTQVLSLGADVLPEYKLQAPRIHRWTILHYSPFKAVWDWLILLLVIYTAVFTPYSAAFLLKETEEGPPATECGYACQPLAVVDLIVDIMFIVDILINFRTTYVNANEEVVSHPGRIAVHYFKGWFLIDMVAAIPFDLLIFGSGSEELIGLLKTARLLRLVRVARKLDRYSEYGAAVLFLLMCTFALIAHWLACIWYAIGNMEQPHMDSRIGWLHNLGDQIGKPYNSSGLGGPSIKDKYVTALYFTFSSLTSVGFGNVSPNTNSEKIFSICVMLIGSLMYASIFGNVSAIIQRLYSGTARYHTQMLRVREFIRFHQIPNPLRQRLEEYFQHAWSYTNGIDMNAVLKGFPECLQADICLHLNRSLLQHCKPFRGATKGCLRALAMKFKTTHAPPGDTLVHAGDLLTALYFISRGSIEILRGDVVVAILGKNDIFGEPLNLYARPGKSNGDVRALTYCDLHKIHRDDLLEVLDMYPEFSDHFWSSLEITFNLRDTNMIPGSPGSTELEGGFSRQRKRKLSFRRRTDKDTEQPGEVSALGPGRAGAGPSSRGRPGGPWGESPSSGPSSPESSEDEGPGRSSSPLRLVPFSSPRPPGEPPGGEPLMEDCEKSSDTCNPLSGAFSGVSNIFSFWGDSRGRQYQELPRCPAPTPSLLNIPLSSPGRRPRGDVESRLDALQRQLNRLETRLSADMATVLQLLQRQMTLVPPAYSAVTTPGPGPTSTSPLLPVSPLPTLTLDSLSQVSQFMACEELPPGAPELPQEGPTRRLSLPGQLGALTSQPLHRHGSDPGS

Compound	hERG current change (%, negative = inhibition) at 10uM
CN1CCN(C(=O)CCC(=O)O)CC1	1.33%
CN(C)C1=NCCN1CCc1cccc(F)c1	-8.41%
Cc1cnc(NC(=O)Nc2ccc(Cl)cc2)s1	6.35%
COc1ccc(OC)c(NC(=S)NN2CCN(C)CC2)c1	2.3%
CSc1nc(S(=O)(=O)c2ccccc2)c(Cl)s1	15.8%
CC(=O)Nc1ccc(NC(=O)C(C)OC(=O)CCC2CCCCC2)cc1 (stereo not drawn)	-0.461%
CCOc1ccc(OCCC(=O)OCC(=O)c2c(N)n(C)c(=O)n(C)c2=O)cc1	-23%
COc1ccc(C(=O)NN)cc1COc1ccc(Br)cc1	-30.7%
COc1ccc(S(=O)(=O)N2CCC(O)(c3ccc(Cl)cc3)CC2)cc1	24.2%
CC1CC(C)(C)CC2(C1)NC(=O)N(CC(=O)Nc1ccc(N3CCCCC3)cc1)C2=O (stereo not drawn)	1.47%
CCN1CCN(S(=O)(=O)c2ccc(Cl)c(C(=O)Nc3ccc(C(=O)N(CC)CC)cc3)c2)CC1	0.597%
O=C(CCNS(=O)(=O)c1ccccc1C(F)(F)F)NNC(=O)C1COc2ccccc2O1 (stereo not drawn)	6.13%
O=C(c1ccccc1)N1CCN(C(=S)NCc2ccc3c(c2)OCO3)CC1	-59.4%
CC(C)C(C)NC(=O)CN1C(=O)NC2(CCCCCC2)C1=O (stereo not drawn)	23.7%
Cc1nn(-c2ccccc2)nc1CNC(=O)CC(C)(C)C	6.39%
COC(=O)N/N=C\c1ccc(-c2cc(Cl)c(Cl)cc2Cl)o1	-1.58%
Cc1ccc(-n2c(SCC(N)=O)nc3c(c2=O)C2(CCCC2)Cc2ccccc2-3)cc1	-18.1%
Cc1cc(/C=N/NC(=O)Cn2c3ccccc3c(=O)c3ccccc32)c(C)n1-c1ccccc1	1.8%
CCc1ccc(NC(=S)Nc2cc(C(=O)O)ccc2N2CC3CC(C2)c2cccc(=O)n2C3)cc1 (stereo not drawn)	32.2%

Compound	hERG current change (%, negative = inhibition) at 10uM
Cc1cccc(OC(C)C(=O)N2CCN(Cc3ccc4c(c3)OCO4)CC2)c1 (stereo not drawn)	-31.4%
COc1ccc(/C=N/N2CCOCC2)cc1COc1ccc(F)cc1	-15.3%
Cc1ccc(C)c(S(=O)(=O)Nc2nc(C)c(C(=O)Nc3ccccc3)s2)c1	18.7%
CCn1nc(C(=O)Nc2ccc(S(=O)(=O)Nc3nccs3)cc2)c2ccccc2c1=O	3.33%
O=C(O)c1cccc(-n2cccc2/C=C/[N+](=O)[O-])c1	15.9%
COc1cc(C2C3CN(C)CC=C3C(C#N)=C(N)C2(C#N)C#N)ccc1OC(C)C (stereo not drawn)	-2.29%
CC(C)(C)c1nc(NCCO)c2nnn(Cc3ccccc3)c2n1	-10.3%
O=c1c2ccccc2ncn1Cc1ccc(Cl)cc1	-12.4%
CN(C(=O)COC(=O)Cn1c(C(F)(F)F)nc2ccccc21)c1c(N)n(Cc2ccccc2)c(=O)[nH]c1=O	10.1%
O=C(NCCCc1ccccc1)c1cc(COc2ccc(F)cc2Cl)on1	7.67%
COc1ccc(S(=O)(=O)N2CCCC(C(=O)NCc3ccco3)C2)cc1OC (stereo not drawn)	10.1%
CS(=O)(=O)N(CC(=O)N1CCN(c2ccccc2F)CC1)C1CCCCC1	7.78%
CCOc1ccccc1NS(=O)(=O)c1cn(C)c(=O)n(C)c1=O	-0.921%
Cl.NC1=NC2(CCCCC2)N=C(Nc2ccc(Br)cc2)N1	-2.19%
O=C(Nc1ccccc1-c1nc2ccccc2s1)c1cccnc1	4.64%
CCCn1c(CNc2ccc(Br)cc2)nc2ccccc21	-3.82%
Cc1ccc(-n2cc(-c3ccccc3)[nH]c2=O)cc1F	-0.89%
CCN(CC)CCNC(=S)Nc1ccc2nc(N3CCN(C)CC3)cc(C)c2c1	-1.04%
c1ccc(-c2cc(-c3nn4c(-c5ccco5)nnc4s3)c3ccccc3n2)cc1	-2.06%

Compound	hERG current change (%, negative = inhibition) at 10uM
NC(=O)C1Cc2ccccc2CN1C(=O)c1cccc(Oc2ccccc2)c1 (stereo not drawn)	13.2%
O=C(NC(Cc1c[nH]c2ccccc12)C(=O)O)c1ccco1 (stereo not drawn)	13.5%
N#CCCN(Cc1cccnc1)C(=S)NC(=O)c1ccco1	26.2%
S=c1[nH]nc(COc2ccccc2)n1/N=C/c1cccc(Cl)c1Cl	11.1%
CCc1cc(=O)oc2c(C)c(OCC(=O)N3CCC(C(=O)O)CC3)ccc12	6.67%
O=Cc1c(Sc2ccccn2)nc2ccccn2c1=O	-16.3%
CCOC(=O)c1cnc(SC)nc1Sc1cc(Cl)ccc1Cl	5.46%
Cc1ccccc1N1CC(C(=O)N2CCc3ccccc32)CC1=O (stereo not drawn)	-0.254%
Cc1nc(SCC(=O)N2CCOCC2)c2c(C)c(C)sc2n1	1.76%
CN(C)S(=O)(=O)N1CCC(Oc2cccc(C(=O)NC3CCOC3)c2)CC1 (stereo not drawn)	2.63%
N/C(CS(=O)(=O)c1ccccn1)=N\OC(=O)c1ccccc1Cl	-9.18%
COc1cccc(NC(=O)COC(=O)c2ccccc2F)c1	13.8%
CCCCCCSc1ccc(-c2nc3ccc(C)cn3c2NCc2ccccc2)cc1OC.O=C(O)C(F)(F)F	7.47%
NC(N)=NC1=NC(=O)C(Cc2ccccc2Cl)S1 (stereo not drawn)	12.6%
Cn1c(=O)[nH]c(NC2CCCCC2)c(N=O)c1=O	2.77%
COc1ccc(S(=O)(=O)N2CCC(C(=O)NCc3cccnc3)CC2)cc1Cl	-11.9%
CCCCN(CC)CCNC(=O)c1cc2cc3ccc(Cl)cc3nc2o1	-72.5%
Cc1coc2cc3oc(=O)c(CCC(=O)O)c(C)c3cc12	-2.01%
CC(=O)c1cccc(NC(=O)Nc2cccnc2)c1	-16.9%
